From PubChem BioAssay AID504332 (National Center for Advancing Translational Sciences (NCATS), 2011)
In all, about 350,000 compounds went through this assay and about 31,000 (8.9%) were called active. This list was built around the results that the source calls inconclusive (neither active nor inactive); the mix of calls is not that of the screen. The call rests on the fitted dose curve; in most records, active means well fitted inhibition curve with a large enough effect; inconclusive means small, poorly fitted or top-dose-only effect; inactive means no such curve, though single readings can be large or run the other way. Where the call is inconclusive, the potency comes from a doubtful curve fit.

target: Histone-lysine N-methyltransferase EHMT2 (Homo sapiens) (UniProt Q96KQ7); experiment: qHTS Assay for Inhibitors of Histone Lysine Methyltransferase G9a; conditions: G9a H3K9 monomethylation, AlphaScreen, 2 h; activity, negative = inhibition: at 59 µM (top of the series) unless noted; further: nearly all actives have a fitted effect of over 75% in size
Method in brief: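 Chemiluminescent proximity detection of H3K9 monomethylation, read after 10 min bead incubation in the dark. Reaction: 20 nM G9a, 500 nM biotin-H3K9 peptide, 20 uM SAM cofactor, 2 h, room temperature, following 15 min enzyme-compound preincubation.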
On the % scale 0 is the no-effect control and ±100 the full control effect; potency means the concentration at half of the fitted maximal effect; tags describe the fitted curve by direction and shape.

Sequence of UniProt Q96KQ7 (Q96KQ7 whole entry, looked up): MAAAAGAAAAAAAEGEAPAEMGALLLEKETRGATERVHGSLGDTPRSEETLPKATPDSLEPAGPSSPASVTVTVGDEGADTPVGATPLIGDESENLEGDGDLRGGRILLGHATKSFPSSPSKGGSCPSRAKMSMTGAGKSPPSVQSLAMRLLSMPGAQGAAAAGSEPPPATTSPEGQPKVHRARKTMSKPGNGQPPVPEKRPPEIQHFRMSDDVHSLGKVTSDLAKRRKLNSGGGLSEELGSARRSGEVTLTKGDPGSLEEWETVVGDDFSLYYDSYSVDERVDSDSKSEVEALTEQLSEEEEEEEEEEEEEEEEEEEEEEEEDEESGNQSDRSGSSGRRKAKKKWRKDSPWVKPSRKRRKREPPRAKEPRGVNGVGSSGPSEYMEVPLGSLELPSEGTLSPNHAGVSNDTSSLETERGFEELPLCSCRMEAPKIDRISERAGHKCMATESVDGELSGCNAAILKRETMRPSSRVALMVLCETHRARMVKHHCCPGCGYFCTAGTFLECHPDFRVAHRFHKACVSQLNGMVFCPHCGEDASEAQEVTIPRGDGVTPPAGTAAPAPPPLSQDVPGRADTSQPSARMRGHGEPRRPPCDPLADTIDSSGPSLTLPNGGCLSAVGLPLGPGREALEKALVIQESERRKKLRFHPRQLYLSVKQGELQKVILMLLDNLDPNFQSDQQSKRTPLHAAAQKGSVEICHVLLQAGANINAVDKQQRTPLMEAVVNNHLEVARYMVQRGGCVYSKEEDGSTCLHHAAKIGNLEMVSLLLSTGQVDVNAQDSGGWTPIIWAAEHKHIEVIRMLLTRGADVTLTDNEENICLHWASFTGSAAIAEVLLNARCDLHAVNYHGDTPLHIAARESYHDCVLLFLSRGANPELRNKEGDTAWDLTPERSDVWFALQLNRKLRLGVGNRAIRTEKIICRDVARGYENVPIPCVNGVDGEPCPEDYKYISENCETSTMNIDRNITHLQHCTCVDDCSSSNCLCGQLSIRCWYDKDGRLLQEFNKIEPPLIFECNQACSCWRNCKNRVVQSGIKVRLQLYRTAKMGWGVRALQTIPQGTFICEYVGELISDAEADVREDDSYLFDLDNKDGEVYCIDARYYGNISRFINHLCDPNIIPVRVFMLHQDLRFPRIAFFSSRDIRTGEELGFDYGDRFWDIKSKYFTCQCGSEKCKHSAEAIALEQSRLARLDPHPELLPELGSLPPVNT

Row | Structure (SMILES) | Potency | activity, negative = inhibition
1 | Cc1[nH]c(=S)[nH]c(=O)c1CCC1OCCO1 | inconclusive: 56.2 µM [inhibitor, partial curve, poor fit] | –
2 | CCC(C)S(=O)(=O)c1oc(-c2cccs2)nc1S(=O)(=O)c1ccccc1 (centres undefined) | active: 17.8 µM | –
3 | CCOC(=O)C(C(=O)OCC)C1OC(=O)c2cc3c(cc21)C(=O)OC3C(C(=O)OCC)C(=O)OCC (centres undefined) | inconclusive: 39.8 µM [inhibitor, partial curve] | –
4 | Cc1cc(Cl)c(OCCCn2ccnc2)c(Br)c1 | inconclusive: 39.8 µM [inhibitor, single point] | –
5 | CCC(C)n1cnc2c(c1=O)c1nc3ccccc3nc1n2Cc1ccccc1OC (centres undefined) | inactive | –
6 | O=C(Cn1cnc2ccccc2c1=O)Nc1cccc(S(=O)(=O)N2CCCCC2)c1 | inactive | –
7 | Cc1cc(=O)oc2c(CN3CCCC3)c(O)c(Cl)cc12 | inconclusive: 89.1 µM [inhibitor, single point] | –
8 | CCN(C(=O)Cn1c(=O)oc2ccccc21)c1c(N)n(Cc2ccccc2)c(=O)[nH]c1=O | – | inactive: 2.14% [at 12.7 µM]
9 | Cc1ncoc1C(=O)N1CCCC(C(=O)c2ccc(Oc3ccccc3)cc2)C1 (centres undefined) | inconclusive: 39.8 µM [inhibitor, partial curve] | –
10 | Cc1ccc2c(c1)c1c(c(=O)n(Cc3ccccc3)c(=O)n1Cc1ccccc1F)n2C | inconclusive: 22.4 µM [inhibitor, partial curve, poor fit] | –
11 | O=[N+]([O-])c1ccc2nc(NCCCO)nc(-c3ccccc3)c2c1 | inactive | –
12 | Cc1nnc(SCC(=O)Nc2ccc(N3CCOCC3)cc2)n1-c1ccccc1 | inconclusive: 35.5 µM [inhibitor, partial curve, poor fit] | –
13 | Nc1ccc2nc(-c3cccc(-c4nc5ccc(N)cc5[nH]4)c3)[nH]c2c1 | active: 22.4 µM | –
14 | NC(CO)(CO)CO | inactive | –
15 | O=c1c(/C=N/O)coc2ccc3ccccc3c12 | inconclusive: 89.1 µM [inhibitor, partial curve, poor fit] | –
16 | CC(C)CCN1C(Nc2ccccc2)=NC[C@@H]1C | inactive | –
17 | Cc1cc(C(=O)Nc2c(F)cc(F)cc2Br)no1 | inconclusive: 56.2 µM [inhibitor, partial curve, poor fit] | –
18 | c1nc(COc2nsnc2N2CCOCC2)cs1 | – | inactive: 15.5% [at 2.33 µM]
19 | O=C1C(=O)N(Cc2ccco2)C(c2cccs2)/C1=C(\O)c1cccc([N+](=O)[O-])c1 (centres undefined) | inactive | –
20 | CCc1cc2c(=O)nc3n(c2s1)Cc1ccccc1/C3=C(/O)c1cccc([N+](=O)[O-])c1 | inconclusive: 11.2 µM [inhibitor, partial curve] | –
21 | O=C(CCCN1C(=O)/C(=C/c2cccc(Br)c2)SC1=S)Nc1ccccn1 | inconclusive: 8.91 µM [inhibitor, full curve, poor fit] | –
22 | Cn1c(SCC(=O)c2ccccc2)nc2cccnc21 | – | inconclusive: -90.8% [inhibitor]
23 | O=c1[nH]c(CN2CCN(S(=O)(=O)c3ccc4ccccc4c3)CC2)nc2ccccc12 | inactive | –

Row | Structure (SMILES) | Potency | activity, negative = inhibition
24 | Cc1cccc(C(=O)OCC(=O)N(CC(C)C)c2c(N)n(Cc3ccccc3)c(=O)[nH]c2=O)c1O | inconclusive: 50.1 µM [inhibitor, partial curve, poor fit] | –
25 | O=S1(=O)c2ccccc2N(Cc2ccccc2F)c2ccccc21 | inactive | –
26 | O=c1ccc(S(=O)(=O)N2CCCC2)cn1Cc1ccc(F)cc1 | active: 3.55 µM | –
27 | O=C(O)/C=C/C(=O)Nc1ccccc1C(=O)Nc1ccccc1 | inconclusive: 39.8 µM [inhibitor, full curve, poor fit] | –
28 | O=C(COC(=O)c1cc(-c2ccco2)nc2ccccc12)NCc1ccccc1 | active: 44.7 µM | –
29 | Cc1cc(C(=O)CN2C(=O)NC3(CCCCCC3)C2=O)c(C)n1C | inconclusive: 79.4 µM [inhibitor, partial curve, poor fit] | –
30 | CCCCCCCCCCCCCC(=O)OCC(COP(=O)([O-])OCC[N+](C)(C)C)OC(=O)CCCCCCCCCCCCC (centres undefined) | – | inactive: -11.1% [at 12.7 µM]
31 | CN1CCN(S(=O)(=O)c2cccc(C(=O)Oc3cccc(Br)c3)c2)CC1 | inconclusive: 70.8 µM [inhibitor, partial curve, poor fit] | –
32 | N#Cc1ccsc1NC(=O)c1ccccn1 | inconclusive: 0.891 µM [inhibitor, full curve, poor fit] | –
33 | Cc1cc(C)n(C(=O)c2cccc(S(=O)(=O)N3CCOCC3)c2)n1 | inconclusive: 89.1 µM [inhibitor, single point] | –
34 | O=[N+]([O-])c1ccc2c(c1)c1ccccc1n2CCO | – | inconclusive: -53.9% [inhibitor]
35 | O=c1cc(CSc2nnnn2-c2ccccc2)[nH]c2[nH]n(-c3ccccc3)c(=O)c12 | inconclusive: 22.4 µM [inhibitor, single point] | –
36 | CC(=O)Nc1ccc(S(=O)(=O)N(C)c2ccc(OCC(=O)Nc3ccccc3C(C)=O)cc2)cc1 | inconclusive: 89.1 µM [inhibitor, partial curve, poor fit] | –
37 | CC(C)CC(C(=O)OCC(=O)Nc1ncc(Cl)cc1Cl)N1C(=O)c2ccccc2C1=O (centres undefined) | – | inconclusive: -67.3% [inhibitor]
38 | O=c1cc(CN2CCCc3ccccc32)nc2sccn12 | inconclusive: 10 µM [inhibitor, full curve, poor fit] | –
39 | CN(C)c1cccc(C(=O)Nc2cccc(S(=O)(=O)NC3=NCCC3)c2)c1 | inconclusive: 89.1 µM [inhibitor, single point] | –
40 | Cc1nc2sc3c(c2c(=O)o1)CCCC3 | active: 44.7 µM | –
41 | Cc1ccc(C)n1-c1ccc(C(=O)N2CCOCC2)cc1 | inconclusive: 22.4 µM [inhibitor, single point] | –
42 | CCc1cc(=O)[nH]c(SCC(=O)N2CCC(Cc3ccccc3)CC2)n1 | inconclusive: 89.1 µM [inhibitor, partial curve, poor fit] | –
43 | COc1ccc(C(=O)N[C@H](C(=O)Nc2ccc(OC)nc2)C(C)C)cc1 | inconclusive: 3.55 µM [inhibitor, partial curve, poor fit] | –
44 | COc1ccc2oc(-c3ccco3)cc(=O)c2c1 | active: 44.7 µM | –
45 | Cc1cc(C)c(OCC(=O)N(Cc2ccc(N(C)C)cc2)Cc2ccco2)c(C)c1 | active: 12.6 µM | –
46 | COc1ccc(/C=C/C(=O)NC(=S)N2CCN(C)CC2)cc1 | inconclusive: 17.8 µM [inhibitor, partial curve, poor fit] | –

Row | Structure (SMILES) | Potency | activity, negative = inhibition
47 | Cc1cc(C)cc(NC(=O)COc2cccc3c(=O)n(C)ccc23)c1 | inactive | –
48 | O=C(/C=C/c1cccc([N+](=O)[O-])c1)NCCSCc1ccco1 | inconclusive: 10 µM [inhibitor, partial curve, poor fit] | –
49 | O=C(CCS(=O)(=O)Cc1ccccc1)Nc1nnc(C(F)(F)F)s1 | inconclusive: 89.1 µM [inhibitor, single point] | –
50 | C=CCS(=O)(=O)c1nc2ccccc2s1 | inactive | –
51 | CCOc1cc2oc(=O)c3c(c2cc1Cl)CCC3 | inconclusive: 39.8 µM [inhibitor, single point] | –
52 | COc1ccc(C(=O)Nc2sc(C(=O)N(C)C)c(C)c2C#N)cc1[N+](=O)[O-] | inconclusive: 89.1 µM [inhibitor, single point] | –
53 | O=C(N/N=C/c1cccc([N+](=O)[O-])c1)c1ccccc1-n1cccc1 | inconclusive: 50.1 µM [inhibitor, partial curve] | –
54 | Cc1cc2oc(C(=O)N(Cc3ccco3)C3CCS(=O)(=O)C3)cc(=O)c2cc1Cl (centres undefined) | inconclusive: 8.91 µM [inhibitor, partial curve, poor fit] | –
55 | CCn1c(CNC(=O)c2cccs2)n[nH]c1=S | inconclusive: 28.2 µM [inhibitor, single point] | –
56 | COc1cccc(N2CCN(C(=O)c3ccc(CS(=O)Cc4ccc(Cl)cc4)o3)CC2)c1 (centres undefined) | inactive | –
57 | COC(=O)c1ccccc1NC(=O)Cn1c(=O)n(CCC(=O)NCc2ccc3c(c2)OCO3)c(=O)c2ccccc21 | inactive | –
58 | CC(CS(=O)(=O)c1cccc2cccnc12)N1CCCCC1 (centres undefined) | active: 25.1 µM | –
59 | COc1ccc(C(=O)c2cn(CC(=O)Nc3cc(OC)cc(OC)c3)c3ccc(OC)cc3c2=O)cc1 | inconclusive: 7.94 µM [inhibitor, full curve] | –
60 | Cc1ccccc1N1CCN(CC(=O)Nc2nc(C)c(C(=O)N(C)C)s2)CC1 | inactive | –
61 | COc1cccc(N2C(=O)C(CC(=O)Nc3cccc(F)c3)N(C3CCCC3)C2=O)c1 (centres undefined) | inconclusive: 31.6 µM [inhibitor, partial curve, poor fit] | –
62 | Cc1ccc(OCC(=O)N/N=C\c2c(C)[nH]n(-c3ccccc3)c2=O)c([N+](=O)[O-])c1 | inconclusive: 89.1 µM [inhibitor, single point] | –
63 | FC(F)Sc1nc2ccccc2[nH]1 | – | inactive: -14.9% [at 12.7 µM]
64 | Cc1cccc(N(C)C(=O)Cn2c(=O)oc3cc(S(=O)(=O)N4CCCCC4)ccc32)c1 | inactive | –
65 | CC(=O)Nc1cccc(NC(=O)CCc2ccccc2)c1 | inconclusive: 56.2 µM [inhibitor, partial curve, poor fit] | –
66 | O=C(c1ccc([N+](=O)[O-])c(CS(=O)(=O)c2ccc(Cl)cc2)c1)N1CCCC1 | inactive | –
67 | COc1ccccc1CN(C)C(=O)c1ccc(COc2ccccc2)cc1 | inconclusive: 79.4 µM [inhibitor, single point] | –
68 | Cc1ccc(CN2CCc3c(OCC(=O)Nc4cc(C)ccc4C)cccc3C2=O)cc1 | inactive | –
69 | COc1ccc(Cc2nnc(NC(=O)C3CCCO3)s2)cc1OC (centres undefined) | inconclusive: 35.5 µM [inhibitor, partial curve, poor fit] | –
